Results reported in patent publication US20040053999A1, “Novel compounds and methods for synthesis and therapy” (priority 1997, published 2004).
Where two headings read alike, the source gives them in different places. Marks after values point to notes of the source that are not given here.

Tested on: Influenza A/NWS/33 (H1N1)
Format: in vivo, mice
Conditions: for Mean Lung Parameters: Weight / Mean Lung Parameters: Score / Mean Lung Parameters: Weight (mg): p.o. bid x 5 days, day 6; for Mean Lung Parameters: Score: scale 0-4

Structure (SMILES) | Reducing mortality in influenza-infected mice (oral or i.p. administration, practical therapeutic doses) | Mean Lung Parameters: Weight (10 mg/kg/day) [mg] | Mean Lung Parameters: Score (10 mg/kg/day) | Mean Lung Parameters: Weight (mg) (50 mg/kg/day) | Mean Lung Parameters: Score (50 mg/kg/day) | Mean Lung Parameters: Weight (mg) (250 mg/kg/day) | Mean Lung Parameters: Score (250 mg/kg/day) | Mean Lung Parameters: Weight (mg) (32 mg/kg/day) | Mean Lung Parameters: Score (32 mg/kg/day) | Mean Lung Parameters: Weight (mg) (100 mg/kg/day) | Mean Lung Parameters: Score (100 mg/kg/day)
CC(=O)N[C@H]1[C@H]([C@H](O)[C@H](O)CO)OC(C(=O)O)=C[C@@H]1N=C(N)N [GG167, 4-guanidino-2,4-dideoxy-2,3-dehydro-N-acetylneuraminic acid] | effective | 250 | 1.5* | 187* mg | 1.5* | 163** mg | 0.3** | – | – | – | –
NC(=O)c1ncn([C@@H]2O[C@H](CO)[C@@H](O)[C@H]2O)n1 [Ribavirin, ribavirin] | – | 267 | 2.2 | – | – | – | – | 163** mg | 0.8** | 140** mg | 0.3**
